Results on 38 compounds are retold here after PubChem BioAssay AID1745853 (National Center for Advancing Translational Sciences (NCATS), 2022).

Assay in all cases: Primary Screen for Target Class Profiling of Small Molecule Inhibitors of Methyltransferases
Test [1] concerns the target Glycine N-methyltransferase (Homo sapiens) (UniProt Q14749). The following applies: purified enzyme, MTase-Glo SAH luminescence; measured here: GNMT inhibition; at 40 µM; stronger effect = lower value. Summed up: (§1)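 Each enzyme was assayed with SAM and its substrate. SAH formation detected by MTase-Glo luminescence; single-point 40 uM screen[…].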
In test [2] the target is Guanidinoacetate N-methyltransferase (Homo sapiens) (UniProt Q14353). The conditions noted are these: purified enzyme, MTase-Glo SAH luminescence; measured here: GAMT inhibition; at 40 µM; stronger effect = lower value. Summed up: as §1
Test [3] has as its target Histamine N-methyltransferase (Homo sapiens) (UniProt P50135). The following applies: purified enzyme, MTase-Glo SAH luminescence; measured here: HNMT inhibition; at 40 µM; stronger effect = lower value. In outline: as §1
The target in test [4] is Nicotinamide N-methyltransferase (Homo sapiens) (UniProt P40261). The conditions noted are these: purified enzyme, MTase-Glo SAH luminescence; measured here: NNMT inhibition; at 40 µM; stronger effect = lower value. Summed up: as §1
The target of test [5] is Phenylethanolamine N-methyltransferase (Homo sapiens) (UniProt P11086). The following applies: purified enzyme, MTase-Glo SAH luminescence; measured here: PNMT inhibition; at 40 µM; stronger effect = lower value. In outline:
as §1

Structures are written as SMILES. Some of the results follow. These are further read-outs of the screen, such as a control signal, another cell line or another target. No call is given for them.
On the % scale 0 is the no-effect control and ±100 the full control effect.

Take `Cc1cc(CN(C)c2ccc(-c3nc(-c4ccccc4F)no3)cn2)on1`: the activity change, negative = inhibition in test [1] was -8.5%; in test [2], -11.4%; in test [3], -5.02%; in test [4], -13.8%; in test [5], -13.4%.

Regarding `CC1(C)CCCC2(C)C(C(=O)O)=CCC12` (stereo not given), the activity change, negative = inhibition in test [1] was -3.93%; in test [2], -8.82%; in test [3], 1.87%; in test [4], -21.1%; in test [5], 0.475%.

Take `COc1cc(NC(=O)N2CCn3cccc3C2C)cc(OC)c1` (stereo not given): the activity change, negative = inhibition in test [1] amounted to 0.871%; in test [2] it was 0%; in test [3], 5.65%; in test [4] it was 1.78%; in test [5], 8.05%.

`COc1ccc(CN2C(=O)COC[C@H]2C(=O)Nc2cc(F)cc(F)c2)cc1OC`: the activity change, negative = inhibition in test [1] was -8.23%; in test [2], 0.308%; in test [3], 3.54%; in test [4], -5%; in test [5], 1.08%.

In the case of `COc1ccc(OC2CCN(C(C)=O)CC2)c(C(=O)N2C[C@@H]3CCC[C@H]2C3)c1`, the activity change, negative = inhibition in test [1] was -4.96%; in test [2], -10.2%; in test [3] it was -3.33%; in test [4], -9.29%; in test [5], -0.878%.

As for `CC(C)CCn1c(=O)c2ccccc2n2c(SCC(=O)Nc3ccc(F)cc3F)nnc12`, the activity change, negative = inhibition was -0.386% in test [1]; 4.21% in test [2]; -1.28% in test [3]; -19.9% in test [4]; 1.03% in test [5].

`O=C(Cn1nc2n(Cc3ccc(F)cc3)c(=O)c3ccccc3n2c1=O)NCc1ccc(Cl)cc1`: the activity change, negative = inhibition in test [1] is -3.89%; in test [2] it was -0.03%; in test [3], -4.06%; in test [4], -10.4%; in test [5], -3.6%.

Consider `C=CCSC(C)C(=O)N1CCCn2nc(C(=O)OC)cc2C1` (stereo not given), for which the activity change, negative = inhibition in test [1] was -0.072%; in test [2] it was 2.29%; in test [3], 3.65%; in test [4] it was 1.37%; in test [5], -0.212%.

Regarding `C=C1[C@H]2[C@H](O[C@@H]3O[C@H](COC(=O)/C=C/c4cc(OC)c(O)c(OC)c4)[C@@H](O)[C@H](O)[C@H]3O)OC=C(C(=O)O)[C@H]2C[C@@H]1O`, the activity change, negative = inhibition in test [1] was 2.21%; in test [2], 3.72%; in test [3] it was 9.48%; in test [4], -7.92%; in test [5], 5.95%.

As to `Cc1nc([C@](C)(O)CO)sc1-c1cnc(N)c(O[C@H](C)c2cc(F)ccc2-n2nccn2)c1`, the activity change, negative = inhibition is -1.56% in test [1]; -25.6% in test [2]; -4.24% in test [3]; -19.7% in test [4]; -11.5% in test [5].

As for `CCC(C)NC(=O)c1ccc2c(=O)n(CC(C)C)c3nn(CC(=O)c4cccc(Cl)c4)c(=O)n3c2c1` (stereo not given), the activity change, negative = inhibition in test [1] is -1.71%; in test [2] it was -0.113%; in test [3], 1.69%; in test [4], -7.24%; in test [5], -4.47%.

In the case of `O=C(Cn1cccn1)N1C[C@@H](COCC2CC2)[C@H](c2ccccn2)C1`, the activity change, negative = inhibition in test [1] is -0.148%; in test [2], 0.373%; in test [3], -0.335%; in test [4], -0.543%; in test [5], 9.55%.

As for `CC1(C(=O)NC2CCCCCCC2)Cn2c(ccc2-c2ccco2)C(=O)N1Cc1ccc(F)cc1` (stereo not given), the activity change, negative = inhibition was -9.12% in test [1]; 0% in test [2]; 0.355% in test [3]; -20.5% in test [4]; -5.06% in test [5].

For the compound `C[C@@H](NS(C)(=O)=O)c1onc(-c2cccnc2)c1C(=O)O`, the activity change, negative = inhibition in test [1] was -7.08%; in test [2], -10.8%; in test [3], -9.66%; in test [4], -16.2%; in test [5] it was -13.4%.

In the case of `CCOC(=O)c1ccc2c(c1)C1C=CCC1C(c1ccc(F)cc1)N2` (stereo not given), the activity change, negative = inhibition in test [1] was -10.8%; in test [2], -9.82%; in test [3] it was -14.7%; in test [4] it was -11.8%; in test [5], -10.2%.

Take `COCCN1CC(CO)C2(CCN(Cc3ccc(C#N)cc3)CC2)C1` (stereo not given): the activity change, negative = inhibition was -8.04% in test [1]; -5.78% in test [2]; -9.44% in test [3]; -12.1% in test [4]; -34.5% in test [5].

As for `COc1ccc2cc3n(c2c1)CC(C)(C(=O)NCC1CCCO1)N(Cc1ccccc1OC)C3=O` (stereo not given), the activity change, negative = inhibition is -1.5% in test [1]; 5.11% in test [2]; 0.126% in test [3]; 4.54% in test [4]; -0.803% in test [5].

For `C=CCn1c(=O)c2ccc(C(=O)NC(C)CC)cc2n2c(=O)n(CC(=O)N(C)c3ccccc3)nc12` (stereo not given), the activity change, negative = inhibition is 2.53% in test [1]; 0% in test [2]; 5.51% in test [3]; -2.1% in test [4]; 2.96% in test [5].

As to `Cc1ccc2c(c1)-c1nc(-c3ccc(Cl)cc3)cc(-c3coc4ccccc4c3=O)c1CO2`, the activity change, negative = inhibition in test [2] was -0.154%; in test [4], -14.7%; in test [5] it was -10.8%.

For the compound `COC(C(=O)N1Cc2[nH]nc(NC(=O)c3ccc(N4CCN(C)CC4)cc3)c2C1)c1ccccc1` (stereo not given), the activity change, negative = inhibition in test [1] was 1.37%; in test [3], -33.5%.

For `COC(=O)c1nc(NC(=O)CC[C@H]2NC(=O)c3ccccc3NC2=O)sc1C`, the activity change, negative = inhibition in test [1] was -9.5%; in test [2], -2.58%; in test [3], 0.246%; in test [4], -9.91%; in test [5] it was -0.423%.

For the compound `CCc1ccc(CNC(=O)c2ncn3c2C(=O)N(C2CC2)C(C)(C(=O)NCc2ccc(OC)cc2)C3)cc1` (stereo not given), the activity change, negative = inhibition in test [1] was -7.2%; in test [2], 3.37%; in test [3], -5.99%; in test [4], -9.64%; in test [5], -4.81%.

In the case of `COC(=O)[C@H](NC(=O)[C@@H]1C[C@@H](NC(=O)CSC)CCN1S(=O)(=O)c1ccc(OC)cc1)C(C)C`, the activity change, negative = inhibition is -1.93% in test [1]; -8.42% in test [2]; -3.81% in test [3]; -15.5% in test [4]; -10.2% in test [5].

`CC(C)CCNS(=O)(=O)c1ccc2[nH]c(=O)[nH]c2c1`: the activity change, negative = inhibition stood at 15.4% in test [1]; 0.663% in test [2]; 14.4% in test [3]; 3.66% in test [4]; 1.91% in test [5].

Take `C=CCn1c(=O)c2ccc(C(=O)NCC(C)C)cc2n2c(=O)[nH]nc12`: the activity change, negative = inhibition was 2.97% in test [1]; 0.587% in test [2]; 5.91% in test [3]; 8.74% in test [4]; -0.919% in test [5].

`Cc1ccc(CNC(=O)C2(C)Cn3nc(C(=O)NCCc4cccc(C)c4)cc3C(=O)N2C)cc1` (stereo not given): the activity change, negative = inhibition in test [1] was 2.03%; in test [2] it was 0%; in test [3], 3.54%; in test [4] it was 3.77%; in test [5] it was 0.78%.

`CCCCN1C(=O)c2ccc(-c3ccccc3)n2CC1(C)C(=O)NC1CCCCCC1` (stereo not given): the activity change, negative = inhibition in test [1] is 0.956%; in test [2], 2.58%; in test [3] it was -2.76%; in test [4], -3.96%; in test [5], -4.21%.

Take `CCn1c2c(c(=O)n1Cc1ccccc1)CCN(C(=O)c1ccc(Oc3ccccc3)cc1)C2`: the activity change, negative = inhibition was -8.25% in test [1]; 0.386% in test [2]; -3.85% in test [3]; -12.3% in test [4]; -2.92% in test [5].

In the case of `CC[C@@H](O)C[C@@H]1C(C)=C[C@@H]2CCCC[C@@H]2[C@@]1(C)C(=O)O`, the activity change, negative = inhibition in test [1] is 1.46%; in test [2] it was 2.36%; in test [3], 7.96%; in test [4], -13.8%; in test [5], -6.81%.

Regarding `O=C(Nc1cccc(C(F)(F)F)c1)[C@@H]1CCCN1c1ccnc2ccnn12`, the activity change, negative = inhibition in test [1] was -7.42%; in test [2] it was -5.78%; in test [3] it was -6.78%; in test [4] it was -11.2%; in test [5] it was -0.035%.

As to `CCNC(=O)c1coc(COc2ccc3c(c2)C(c2cccc(C)c2)N(C(=O)C2CC2)CC3)n1` (stereo not given), the activity change, negative = inhibition is -4.86% in test [1]; -1.47% in test [2]; -7.64% in test [3]; -13.5% in test [4]; -10.8% in test [5].

For `O=C(Cc1cccc(Cl)c1)N1CC(c2nc(Cc3ccccc3)no2)C1`, the activity change, negative = inhibition is -2.64% in test [1]; -0.458% in test [2]; 0.324% in test [3]; 2.75% in test [4]; 0.045% in test [5].

Consider `CCC(=O)N1CCCC(c2nc(-c3cccnn3)no2)C1` (stereo not given), for which the activity change, negative = inhibition is -4.35% in test [1]; -11.5% in test [2]; -5.24% in test [3]; -13.2% in test [4]; -6.8% in test [5].

As to `CC1(C(=O)NC2CCCC2)Cn2c(cc3sccc32)C(=O)N1Cc1ccccc1` (stereo not given), the activity change, negative = inhibition in test [1] is -3.27%; in test [2] it was 3.94%; in test [3] it was -3.14%; in test [4], -11%; in test [5] it was -1.55%.

As for `Cc1ccc(CN2CC(Oc3ccccc3C(=O)NCc3ccccc3)C2)o1`, the activity change, negative = inhibition in test [1] was -6.48%; in test [2], -5.7%; in test [3], -4.64%; in test [4] it was -15.3%; in test [5], -4.4%.

Consider `CCN1C(=O)c2cc(C(=O)NCc3ccc(SC)cc3)nn2CC1(C)C(=O)NC1CCCC1` (stereo not given), for which the activity change, negative = inhibition is 1.68% in test [1]; 2.43% in test [2]; 0.834% in test [3]; 0.534% in test [4]; -0.809% in test [5].

With `CC(=O)Nc1c2n(c3ccc(F)cc13)CC(C)(C(=O)NC1CCCC1)N(c1cccc(C)c1C)C2=O` (stereo not given), the activity change, negative = inhibition in test [1] was determined as 5.81%; in test [2], 0.994%; in test [3], 2.09%; in test [4], 12.1%; in test [5] it was 0.933%.

Consider `Clc1ccccc1C1(c2ccnc(NCCc3ccncc3)n2)CCNCC1`, for which the activity change, negative = inhibition in test [1] is -8.64%; in test [2], -11.6%; in test [3], -35.1%; in test [4] it was -30.2%; in test [5] it was -16.3%.
